Results from paper PMC10668032.
This is one part of the list. At the low end of the ranking the order means little.

Each sequence was assayed against SIX1-Q177R homeodomain (UniProt Q15475) (assay: universal protein binding microarray). Conditions: Universal all-10-mer PBM (8x60K, AMADID 030236), 300 nM GST-tagged protein, Alexa Fluor 488 anti-GST; buffer, salt, pH and temperature not stated; high values mean tight binding; most listed sequences are background and not binding sites; double strand, one strand shown.
GCCACGTA was tested, and the binding signal was -0.282 E-score. For GTCTCCAC, the binding signal was -0.225 E-score. In the case of TATCCTGA, the binding signal is reported as 0.0194 E-score. Work on GCTAAAAC yielded a binding signal of 0.0107 E-score. For ATGATCGA, the binding signal was -0.099 E-score. Sequence AAAGTGGG has a binding signal of 0.055 E-score. Work on ATTCAAAT yielded a binding signal of -0.272 E-score. Work on CCTGGTTA yielded a binding signal of -0.15 E-score. Work on CTAACCCA yielded a binding signal of -0.0268 E-score. Sequence GGAGAAAA has a binding signal of -0.209 E-score. ATTTAGCC gave a binding signal of -0.0392 E-score. With AGAGGACG the binding signal was 0.00352 E-score. For AAGCACAC, the binding signal was 0.276 E-score. GACCCTGA showed a binding signal of -0.0564 E-score. Sequence ACATACCC has a binding signal of 0.17 E-score. For GGGGCAAC, the binding signal was -0.137 E-score. For ATTACATC, the binding signal was -0.0692 E-score. CTCCGCTC was tested, and the binding signal was -0.0603 E-score. Work on ACAATCGG yielded a binding signal of 0.0827 E-score. With ATAGTCTA the binding signal was -0.246 E-score. Work on ATGGATGA yielded a binding signal of 0.0307 E-score. TGTCGCAA gave a binding signal of 0.141 E-score. CTCCGCGA showed a binding signal of -0.0428 E-score. Sequence TAGAAACA has a binding signal of -0.101 E-score. In the case of AACGGGGT, the binding signal is reported as 0.205 E-score. In the case of CGGCGGGA, the binding signal is reported as 0.0209 E-score. Work on CGGCCCAA yielded a binding signal of -0.0546 E-score. For GAGCACAC, the binding signal was 0.262 E-score. Work on AGTTATAT yielded a binding signal of -0.0876 E-score. ATGGGCAC was tested, and the binding signal was 0.05 E-score. CGTTCAGA gave a binding signal of -0.143 E-score. Sequence CGTAGAAC has a binding signal of 0.0685 E-score. Sequence CACAACCG has a binding signal of 0.0968 E-score. Work on CAAAAGCA yielded a binding signal of -0.0783 E-score. Work on CCATAGAA yielded a binding signal of 0.0571 E-score. GACAAACA was tested, and the binding signal was 0.0953 E-score. CTCCGACA gave a binding signal of 0.175 E-score. In the case of CGACAATA, the binding signal is reported as -0.191 E-score. With GGGCCGAA the binding signal was -0.198 E-score. CGTGCACG showed a binding signal of 0.17 E-score. CACGACTC gave a binding signal of 0.304 E-score. ACTTTCCT was tested, and the binding signal was -0.302 E-score. Work on GGGACCCC yielded a binding signal of 0.211 E-score. CTCGTCAA showed a binding signal of -0.0958 E-score. In the case of CCGACCGA, the binding signal is reported as -0.154 E-score. ATACTGTC was tested, and the binding signal was -0.0234 E-score. ATCCCACC was tested, and the binding signal was 0.133 E-score. For ATCGGATG, the binding signal was -0.0387 E-score. In the case of TCGGAACA, the binding signal is reported as 0.121 E-score. Sequence AATAAACT has a binding signal of -0.164 E-score. In the case of AGCGTGTG, the binding signal is reported as 0.281 E-score. ACGCGCCC showed a binding signal of 0.0735 E-score. For ATGCCTCG, the binding signal was -0.226 E-score. ACAATTCG gave a binding signal of -0.0744 E-score. ACAATGAA showed a binding signal of -0.191 E-score. For CTTTCCGC, the binding signal was -0.138 E-score. Sequence GTAACGGA has a binding signal of -0.0519 E-score. For GGGTCCAA, the binding signal was 0.218 E-score. Work on CAATCAGA yielded a binding signal of -0.114 E-score. AGGACGGC showed a binding signal of -0.21 E-score. Sequence ACGTAATG has a binding signal of -0.0582 E-score. AAACGGAG showed a binding signal of -0.206 E-score. Work on CCGGGATA yielded a binding signal of 0.0159 E-score. GCGACAGC was tested, and the binding signal was -0.267 E-score. With CAGATAGA the binding signal was -0.114 E-score. For AAAAAGCT, the binding signal was -0.247 E-score. Sequence CTTGTTTC has a binding signal of 0.0226 E-score. Work on AAGTGGCG yielded a binding signal of -0.125 E-score. For AGAGGTCC, the binding signal was -0.106 E-score. In the case of ACCGCGAA, the binding signal is reported as 0.161 E-score. ATTCATAC was tested, and the binding signal was -0.00919 E-score. ATTGTTGC showed a binding signal of -0.0309 E-score. Work on ATCGTTAC yielded a binding signal of -0.0388 E-score. Sequence AACCTTGG has a binding signal of 0.0102 E-score. CTCCAGCA gave a binding signal of 0.0219 E-score. With CATCAATC the binding signal was -0.123 E-score. In the case of ATATGCCC, the binding signal is reported as -0.0104 E-score. In the case of GGCGTTGA, the binding signal is reported as -0.0156 E-score. CGGGAACC showed a binding signal of -0.055 E-score. AGCAAGAC showed a binding signal of -0.0797 E-score. With GCGCAAAC the binding signal was -0.142 E-score. With GGGGAGCA the binding signal was -0.121 E-score. In the case of ACTGGCAG, the binding signal is reported as -0.0896 E-score. GCAGCGTA showed a binding signal of -0.167 E-score. In the case of ATACTATA, the binding signal is reported as 0.0849 E-score. Sequence AAAAGGAG has a binding signal of -0.186 E-score. Work on GGTCTGAA yielded a binding signal of -0.146 E-score. AGCCCGAG gave a binding signal of -0.108 E-score. In the case of AGTACTAC, the binding signal is reported as -0.0546 E-score. CAGCAATA showed a binding signal of -0.151 E-score. ACGGAGGA showed a binding signal of 0.102 E-score. AAAAGGGT was tested, and the binding signal was -0.0479 E-score. In the case of AAGTTGCG, the binding signal is reported as -0.0682 E-score. GGACCAAA showed a binding signal of -0.142 E-score.
